Out of some 420,000 compounds screened, about 50,000 (12%) were called active. Inconclusive results, whose numbers are uncertain, are shown with a selection of clear calls. Calls follow the shape of the dose curve; as a rule, active = well fitted inhibition curve with a large enough effect; inconclusive = small, poorly fitted or top-dose-only effect; inactive = flat fitted curve, though single readings scatter. No potency is given beside an inconclusive call; the fits are too rough. *1 amine or outer side, *2 acyl side, *3 side chain or, on linkers, in order; H or OH if unused. Where a SMILES comes first, the peptide text is derived from it. Bridges are numbered along the chain shown (N, C = ends). [ ]: non-standard residue; d: D form. The star is where a group is joined. ξ: configuration not given here. X13 = CC[C@H](CCC[C@@H](O)[C@@H](C)C(=O)O[C@H](C)[C@@H](C)C/C=C(C)/C(=C\C(=O)[*:1])OC)O[*:2]; NMeξIle = CC[C@H](C)C(NC)C(=O)O; Hyp = O=C(O)[CH]1C[CH](O)CN1; NMeV = CN[C@H](C(=O)O)C(C)C; NMeS = CN[C@@H](CO)C(=O)O; Cbz = O=C(OCc1ccccc1)*; OBn = c1ccc(CO*)cc1
Experiment: qHTS for Inhibitors of human tyrosyl-DNA phosphodiesterase 1 (TDP1): qHTS in cells in presence of CPT; also: nearly all actives have a fitted effect of over 55% in size
Details: chicken DT40 Tdp1-/-;hTDP1 cells + 20 nM CPT, ATP luminescence, 48 h; series mostly up to 46.2 µM
Outline: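 Cell growth measured by CellTiter-Glo luminescence after a minimum 48 h, 37 C compound exposure with 20 nM CPT in Tdp1-knockout DT40 cells stably expressing hTDP1, seeded 400/well; qHTS titration format.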
Potency is read from the fitted curve at half-maximal effect; tags tell the direction and shape of the fitted curve.

Structure (SMILES) | Potency
CN1CCN(c2oc(-c3ccc(OCc4ccc(Cl)cc4)cc3)nc2C#N)CC1 | inconclusive [inhibitor, single point]
CC(C)(C)c1ccc(C2(C)NC(=O)N(CC(=O)NCc3cccs3)C2=O)cc1 (stereo not drawn) | inconclusive [inhibitor, single point]
CC[C@@H]1CCC[C@@H](O)[C@@H](C)C(=O)O[C@H](C)[C@@H](C)C/C=C(C)/C(OC)=C\C(=O)N(C)C([C@@H](C)CC)C(=O)N(C)[C@@H](C(C)C)C(=O)N(C)[C@@H](COC)C(=O)N2CCC[C@H]2C(=O)N(C)[C@@H](C(C)C)C(=O)N2CCC[C@H]2C(=O)O1 (stereo partly drawn) ([NMeξIle][NMeV][NMeS](Me)P[NMeV]P; linker N-C via X13) | active: 0.146 µM
COC(=O)c1c(NC(=O)COc2ccccc2Cl)sc2c1CCC(C(C)(C)C)C2 (stereo not drawn) | inactive
Cc1nc2cnc(N3CCOCC3)nc2n(CCc2ccccc2)c1=O | inconclusive [inhibitor, single point]
O=C(Nc1ccc(Br)cc1)c1ccc(Br)c(S(=O)(=O)N2CCCCC2)c1 | inconclusive [inhibitor, single point]
CC1(C(=O)N2CCC(CO)(Cc3cccc(C(F)(F)F)c3)CC2)CC1 | inconclusive [inhibitor, partial curve]
N[C@@]1(C(=O)O)CN[C@@H](C(=O)O)C1 | inactive
Cc1sc2ncn(CC(=O)NCCCOC(C)C)c(=O)c2c1S(=O)(=O)N1CCN(c2ncccn2)CC1 | inactive
O=C(Cn1nc(-c2ccccc2Cl)ccc1=O)Nc1ccc(Br)cc1 | inactive
CCn1c(COc2ccc(Cl)c(C)c2)nnc1SCC(=O)N1CCCC1 | inconclusive [inhibitor, single point]
c1ccc(SCc2cn(C[C@H]3CC[C@@H]([C@@H]4CC[C@H](Cn5cc(CSc6ccccc6)nn5)O4)O3)nn2)cc1 | inconclusive [inhibitor, single point]
O=C(NCC(=O)N1CC(O)CC1C(=O)N1CCCC1C(=O)OCc1ccccc1)OCc1ccccc1 (stereo not drawn) (Cbz-Gly-[Hyp]-Pro-OBn; configuration not given here) | inconclusive [inhibitor, single point]
CC(C)(C)OC(=O)N1CCC[C@H]1C(=O)NCc1ccc(Cl)cc1Cl | inconclusive [inhibitor, single point]
O=C(O)CCn1c(CO)nc2ccccc21 | inconclusive [inhibitor, single point]
Cc1ccccc1C(=O)c1c[nH]c(C(=O)N2CCN(c3ccccc3F)CC2)c1 | active: 18.4 µM
N#C/C(=C\c1ccc(Br)cc1)c1nc(-c2cc3cc(Br)ccc3oc2=O)cs1 | inactive
Cc1ccc(OCC(=O)Nc2c(C)ccc3nsnc23)cc1 | inactive
Cc1ccc(C(=O)c2cn(Cc3ccccc3F)c3cc4c(cc3c2=O)OCO4)cc1 | inconclusive [inhibitor, single point]
Cc1ccc(Cl)c2c(N=Nc3ccccc3)c(O)[nH]c12 | inactive
O=C(CSc1ccc(-c2nc3ccccc3[nH]2)cn1)Nc1ccc(S(=O)(=O)N2CCCC2)cc1 | inconclusive [inhibitor, single point]
Cc1ccc(OCCN2CCN(C(=O)CCC(=O)Nc3nnc(CC(C)C)s3)CC2)cc1 | inconclusive [inhibitor, single point]
COC(=O)c1ccc(Cl)cc1NC(=O)N1CCC(CN2CCCC2)CC1 | inconclusive [inhibitor, single point]

Structure (SMILES) | Potency
OC(c1ccccc1)c1nc(-c2cccc(F)c2)cs1 (stereo not drawn) | inactive
Cc1c(CCOC(=O)C23CC4CC(CC(C4)C2)C3)sc[n+]1Cc1ccccc1 | inconclusive [inhibitor, single point]
O=C(c1ccc(CNc2c(N3CCCC3)c(=O)c2=O)cc1)N1CCc2ccccc2C1 | inconclusive [inhibitor, single point]
COc1ccc(NC(=O)c2cc(C3CCCCN3S(=O)(=O)c3cccs3)on2)c(C)c1 (stereo not drawn) | inconclusive [inhibitor, single point]
CCOc1cc(C2C(C#N)=C(N)OC(C)=C2C(C)=O)c(Br)c(Br)c1OC(C)C (stereo not drawn) | active: 4.61 µM
O=C(c1cccc(S(=O)(=O)N2CCCCCC2)c1)N1CCN(Cc2ccccc2)CC1 | inconclusive [inhibitor, single point]
Cc1cc(C)c(OCC(=O)NCC2COc3ccccc3O2)c(C)c1 (stereo not drawn) | inconclusive [inhibitor, single point]
CCN(CC)C(=O)Oc1ccc(Br)c2ccccc12 | inconclusive [inhibitor, single point]
CC(=O)c1ccc(-c2cnc3c(NC=O)cc(-c4cnn(C)c4)cn23)cc1 | active: 18.4 µM
CCOC(=O)CNC(=S)n1ncnc1N | active: 16.4 µM
O=c1c2ccccc2nc2c3ccccc3c(NCc3ccco3)nn12 | inconclusive [inhibitor, single point]
Cc1cccc(C)c1OCCOCCN1CCN(C)CC1 | inconclusive [inhibitor, partial curve, poor fit]
CCCCCNC(=O)C(c1ccncc1)n1c(=O)c(-c2ccccc2)nc2ccccc21 (stereo not drawn) | inconclusive [inhibitor, single point]
COc1cc(/C=C(\C#N)c2nc3ccc(C)cc3[nH]2)ccc1OC(C)C | inconclusive [inhibitor, partial curve]
O=C(COc1cc2oc(=O)cc(-c3ccccc3)c2cc1Cl)NC(Cc1c[nH]c2ccc(O)cc12)C(=O)O (stereo not drawn) | inactive
CCn1c(COc2ccccc2)nnc1SCC(=O)C(C)(C)C | inconclusive [inhibitor, single point]
O=C(NCc1ccc(C(F)(F)F)cc1)C1CC(c2ccc(C(F)(F)F)cc2)=NO1 (stereo not drawn) | active: 23.1 µM
COc1ccc(N(CC(=O)N/N=C/c2ccc3c(c2)OCO3)S(=O)(=O)c2ccc(NC(C)=O)cc2)cc1 | inconclusive [inhibitor, single point]
O=C(O)c1ccc(Cl)c(S(=O)(=O)N(Cc2ccccc2)c2ccc(F)cc2)c1 | inactive
CCc1ccccc1N(C)S(=O)(=O)c1ccc2[nH]cc(C(=O)NCCOC)c(=O)c2c1 | inconclusive [inhibitor, single point]
Cc1ccc(OCc2cc(C(=O)N(C)CCc3ccccn3)no2)cc1C | active: 25.9 µM
COc1ccc(S(=O)(=O)N(C)CC(=O)NCCCN2CCOCC2)cc1C | inconclusive [inhibitor, single point]
O=C(CNC(=S)NC(=O)c1ccccc1Br)c1ccccc1 | inactive

Structure (SMILES) | Potency
COCOCCn1cc(CN2CCS(=O)(=O)N(Cc3ccc(-c4ccc(OC)nc4)cc3)C(C(C)C)C2=O)nn1 (stereo not drawn) | active: 13 µM
Cc1n[nH]c(C)c1S(=O)(=O)N1CCC(C(=O)Nc2cccc(F)c2)CC1 | inconclusive [inhibitor, single point]
COc1ccc(CCNS(=O)(=O)c2cccs2)cc1 | inactive
C=CC[C@H]1CC(Cc2ccccc2)=C[C@H](CC=C)N1 | active: 16.4 µM
COC(=O)CSC1=C(C#N)C(c2cccc(F)c2)CC(=O)N1 (stereo not drawn) | inconclusive [inhibitor, single point]
Cc1ccc(S(=O)(=O)N2[C@@H](CO)CO[C@H]2CC(=O)OCc2ccccc2)cc1 | inactive
COC(=O)C(Cc1c[nH]c2ccccc12)NC(=O)C(=O)c1c[nH]c2ccccc12 (stereo not drawn) | inactive
C=CCNC(=O)/C(C#N)=C/c1c(N2CCN(c3cccc(Cl)c3)CC2)nc2c(C)cccn2c1=O | inconclusive [inhibitor, single point]
CC(C)(C)C(=O)CSc1ncnc2sc3c(c12)CCC3 | inconclusive [inhibitor, single point]
CCc1cc(/C(Cc2cscn2)=N\O)c(O)cc1O | inactive
COc1ccc(-c2cc(C(F)(F)F)nc(NCc3ccccc3)n2)cc1 | active: 25.9 µM
CC(=O)c1cnc2c(-c3ccc(Cl)cc3)cnn2c1C | inconclusive [inhibitor, single point]
N#Cc1ccc(-c2nc3ccc(Cl)cn3c2Cc2ccccc2)cc1 | active: 20.6 µM
COC(=O)C[C@H]1CC[C@H](NC(=O)Nc2ccccc2OC)[C@@H](CO)O1 | inactive
COC(=O)c1cc(OC)c(OC)cc1NC(=O)c1c(-c2ccccc2)noc1C | inconclusive [inhibitor, full curve, poor fit]
COc1cccc(NC(=O)C(=O)NCC(c2ccc3c(c2)OCO3)N2CCOCC2)c1 (stereo not drawn) | inconclusive [inhibitor, single point]
Cc1ccc(S(=O)(=O)N2CCCCC2CCNC(=O)C(=O)NCc2ccco2)cc1 (stereo not drawn) | active: 13 µM
NC(=S)N=Nc1c(O)n(Cc2ccc(F)cc2)c2ccccc12 | active: 16.4 µM
CCOC(=O)C1CCCN(C(=O)CSc2ccc(NC(C)=O)cc2)C1 (stereo not drawn) | inactive
O=C(NC(=S)Nc1ccccc1O)c1ccc(-c2ccc(Cl)cc2)o1 | active: 23.1 µM
Fc1ccc(C(Nc2ccc(Cl)c(C(F)(F)F)c2)c2nnc(-c3ccccc3)o2)cc1 (stereo not drawn) | inconclusive [inhibitor, single point]
CCOc1ccc(Cc2n[nH]c(=S)n2Cc2ccccc2)cc1 | inconclusive [inhibitor, single point]
